Test results: PubChem BioAssay (NCI)
Values joined by “and” are separate entries in the source; they are usually repeats but may differ in a detail not shown here. Equal entries are not always repeated.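 In this assay, cells in 96-well plates receive the compound at five concentrations for 48 hours. Endpoints are linearly interpolated between the surrounding concentrations. GI50: concentration for 50% inhibition of growth. Definition used: TGI = concentration required for complete inhibition of growth.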 Square brackets hold non-standard residues; d marks the D form. Peptide text beside a SMILES is read from it. * marks the point of attachment. Bn2Val = CC(C)[C@@H](C(=O)*)N(Cc1ccccc1)Cc1ccccc1; NH(3,4-diMeO-benzyl) = COc1ccc(CN*)cc1OC; NMeV = CN[C@H](C(=O)O)C(C)C; dNMeA = CN[C@H](C)C(=O)O

The molecules below were run on NCI-H322M lung (assay: NCI-60 cell line screen, 48 h).

Row | SMILES | GI50 [µM] | TGI
1 | CCN1CCN(c2nc(NCCNc3ccnc4cc(Cl)ccc34)c3ccccc3n2)CC1 | 2.46 | 8.71 µM
2 | O=C1/C(=C/c2ccccc2)CN(C(=O)Oc2ccc(Cl)cc2)C/C1=C\c1ccccc1 | – | > 81.6 µM
3 | Nc1ncnc2c1ncn2C(=O)NC12CC3CC(CC(C3)C1)C2 | – | > 100 µM
4 | C[C@@H]1Cc2c([nH]c3ccccc23)[C@@H](c2c(F)cc(/C=C/C(=O)O)cc2F)N1CC(C)(C)F | 13.8 | 32 µM
5 | COc1ccc(-n2cc(-c3ccc(OC)c(OC)c3)[nH]c2=S)cc1Cl | > 100 | > 100 µM
6 | OCc1c(-c2cccc3ccccc23)sc(-c2cccc3ccccc23)c1CO | – | 28.6 µM
7 | c1ccc2c(c1)CCCN1CCc3ccccc3C21 (stereo unspecified) | – | > 100 µM
8 | O=[N+]([O-])c1ccc(NSc2ccccc2)cc1 | – | > 100 µM
9 | Brc1ccc2c3c1[C@@H]1O[C@@H]1c1cccc(c1-3)[C@@H]1O[C@H]21 | – | > 73.7 µM
10 | O=C1CSC(N2CCN(c3cccc(Cl)c3)CC2)=N1 | > 100 | > 100 µM
11 | O=C(O[C@H](/C=C/c1ccccc1)P1(=O)N(Cc2ccccc2)[C@@H]2CCCC[C@H]2N1Cc1ccccc1)c1ccccc1 | – | > 100 µM
12 | CCOC(=O)c1c(SCCN2CCCC2)n(-c2ccccc2)c(=S)n(-c2ccccc2)c1=O | – | 32.2 µM
13 | CCOC(=O)C(=O)N1C(C)=C(C(=O)OCC)CC(C(=O)OCC)=C1C | – | > 100 µM
14 | CC(C)CCNC(=O)c1ccc(CNC(=O)/C=C/c2ccc(OCc3ccccc3)cc2)cc1 | – | > 100 µM
15 | CN(C)c1ccc2c(c1)oc(=O)c1ccccc12 | – | 27.9 µM
16 | COc1nc2c(cc1S(=O)(=O)c1ccccc1)CCc1c-2cnn1-c1ccccc1Cl | 4.76 | > 100 µM
17 | CC(C)(C)C1=NC(S)NC(CCC(=O)Nc2ccccc2[N+](=O)[O-])=C1 (stereo unspecified) | – | > 100 µM
18 | Cc1c(N2C(=O)/C(=C\c3ccccc3O)N=C2c2ccccc2)c(=O)n(-c2ccccc2)n1C | 97.3 | > 100 µM
19 | COC(=O)c1c2c(c(C)[n+]([O-])c1C)C(=O)C=CC2=O | 1.68 | 3.08 µM
20 | O=C(OCc1ccccc1)OOC(=O)OCc1ccccc1 | – | > 100 µM
21 | Cc1c(Cl)cccc1Nc1ncccc1C(=O)O | > 100 | > 100 µM
22 | COc1ccc(CNC(=O)COc2ccc(/C=N/Nc3nc4ccccc4s3)cc2)cc1 | 3.19 | > 100 µM
23 | CC[n+]1ccc2c(c1)C(=O)c1nccc3c1c-2nc1ccccc13 | 0.711 | 3.7 µM
24 | COc1ccc2c(c1)C(=O)c1ccccc1C2 | – | > 100 µM
25 | CCCCCCCCCCCCOC1C(CNCC2OC3OC(C)(C)OC3C2NC(=O)Nc2ccc(C(=O)OCC)cc2)OC2OC(C)(C)OC21 (stereo unspecified) | 8.73 | 22 µM

Row | SMILES | GI50 [µM] | TGI
26 | O=c1nc2c(c(-c3cccc(Cl)c3)[nH]1)COC/C2=C\c1cccc(Cl)c1 | – | > 100 µM
27 | O=C(O)/C=C/C(=O)Nc1ncn[nH]1 | – | > 100 µM
28 | N#Cc1nc(-c2ccc(F)cc2)oc1S(=O)(=O)N1CCOCC1 | 14.5 | 28.2 µM
29 | O=C(Nc1ccccc1[N+](=O)[O-])c1ccccc1 | – | > 100 µM
30 | OCc1ccccc1C1CSCSC1 | – | > 100 µM
31 | O=C(O)CCCc1ccc(N(CCCl)CCCl)cc1 | – | 84.2 µM and 574 µM and 710 µM
32 | O=c1c2cc(I)ccc2[nH]c(=S)n1Cc1ccccc1 | – | 75.7 µM
33 | C/C(=N/NC(=S)Nc1cccc(C)c1)c1ccccn1 | – | 0.925 µM
34 | COC(=O)C1CC(C=[N+](C)C)=C(SC)N1 (stereo unspecified) | – | > 100 µM
35 | Cc1nc2ccc([N+](=O)[O-])cc2c(=O)n1C(=S)Nc1cccc(Cl)c1 | – | 81.3 µM
36 | N#CSCc1cccc(Nc2cc(=O)[nH]c(=O)[nH]2)c1 | – | > 100 µM
37 | COc1cc([C@@H]2c3cc4c(cc3C[C@H]3COC(=O)[C@@H]32)OCO4)cc(OC)c1OC | 0.00374 | > 50 µM
38 | O=C1N[C@@H]2c3c(csc3Br)C(=O)[C@@H]2O1 | – | > 100 µM
39 | O=C1CCC(NC(=O)c2ccccc2)C(=O)N1 (stereo unspecified) | – | > 100 µM
40 | COc1cc2c(cc1O)[C@H](Cc1ccc(Oc3cc(C[C@H]4c5cc(OC)c(OC)cc5CCN4C)ccc3OC)cc1)NCC2 | – | 31.2 µM
41 | COC(=O)[C@@H](C)C[C@H](Cc1ccccc1)NC(=O)c1nc([C@@H](C[C@H](C(C)C)N(C)C(=O)[C@@H](NC(=O)[C@H]2CCCN2C)C(C)C)OC(C)=O)sc1C | 0.00889 | > 25 µM
42 | Cc1cccc2c3ccc4c(c3n(C)c12)C(=O)C=CC4=O | – | > 100 µM
43 | O=C1CC[C@H]2CNC(=O)C[C@H]2C1 | – | > 100 µM
44 | O=S(=O)(O)C(O)/C=C/c1ccccc1 (stereo unspecified) | – | > 100 µM
45 | Cc1nc(Cl)c(CBr)c(Cl)n1 | – | 3.77 µM
46 | ClCc1ccccc1CSc1ncnc2nc[nH]c12 | > 60 | > 60 µM
47 | CC1=C(CCCOC(=O)NCCCl)C2=C(C)C3(CC3)[C@@](C)(O)C(=O)C2=C1 | 2.48 | 8.58 µM
48 | CC1(C)N=C(N)N=C(N)N1c1ccc(CCCCc2ccc(S(=O)(=O)F)cc2Cl)c(Cl)c1 | – | 190 µM
49 | CN1CCN(C(=S)N(C)C(=O)c2ccc(Cl)cc2)CC1 | – | > 100 µM
50 | CC1=C2[C@@H](CC1)[C@]1(C)O[C@@](C(C)C)(C[C@H]1OC(=O)[C@H](C)O)[C@H]2OC(=O)/C=C/c1ccccc1 | 17.2 | 35.6 µM

Row | SMILES | GI50 [µM] | TGI
51 | COc1cc2c(cc1OC)C1C=NC(C(=O)O)(C2)c2ccccc21 (stereo unspecified) | – | > 100 µM
52 | N#Cc1c(O)c2c(c(O)c1C#N)C(=O)c1ccccc1C2=O | 2.92 | 12.1 µM
53 | O=[N+]([O-])C(=C(Sc1ccccc1)Sc1ccccc1)C(Cl)=C(Cl)Cl | – | 23.2 µM
54 | CN=C1NC(=O)/C(=C/c2ccc3ncccc3c2)S1 | 8.58 | > 25 µM
55 | CO/N=C1/c2sccc2[C@H](NC(=O)CNC(=O)OC(C)(C)C)[C@@H]1O | – | > 100 µM
56 | COc1ccc(CNC(=O)[C@@H](C)N(C)C(=O)[C@@H]2CCCN2C(=O)[C@H](C(C)C)N(C)C(=O)[C@@H](NC(=O)[C@H](C(C)C)N(Cc2ccccc2)Cc2ccccc2)C(C)C)cc1OC (Bn2Val-V[NMeV]P[dNMeA]-{NH(3,4-diMeO-benzyl)}) | 15.6 | 50 µM and 49.9 µM
57 | O=C1Oc2cc3c(c4cccc1c24)OCN(c1ccc(Cl)cc1)C3 | – | > 100 µM
58 | C[Si](C)(C)c1ccc(CC2(Cc3ccc([Si](C)(C)C)cc3)CCNC2)cc1 | – | 13.7 µM
59 | COc1cc2c(NCCCCCCO[N+](=O)[O-])ncnc2c(OC)c1OC | – | 75.1 µM
60 | O=C1/C(=C/c2ccc(F)cc2)CNC/C1=C\c1ccc(F)cc1 | – | 18 µM
61 | O=C1C(Br)=Cc2c(Cl)sc(Cl)c21 | – | 38.5 µM
62 | CC1=CC=CC(C)(C)CC1(O[Si](C)(C)C)C(F)(F)F (stereo unspecified) | – | > 100 µM
63 | CC1=CC(=O)N(n2c(C)n[nH]c2=O)C1=O | – | > 100 µM
64 | Cc1cc(C)c2c(n1)S(=O)(=O)N(CCCN1CCN(c3cccc(C(F)(F)F)c3)CC1)/C(=C(\O)c1ccc(Cl)cc1)C2=O | – | 18.3 µM
65 | c1ccc(N=c2snc(-c3ccccc3)s2)cc1 | – | > 100 µM
66 | O=C(/C=C(\[O-])c1ccccc1)CCCCCCC(=O)/C=C(\[O-])c1ccccc1.O=C(/C=C(\[O-])c1ccccc1)CCCCCCC(=O)/C=C(\[O-])c1ccccc1.O=C(/C=C(\[O-])c1ccccc1)CCCCCCC(=O)/C=C(\[O-])c1ccccc1.[La+3].[La+3] | > 50 | > 50 µM
67 | Cn1cc(C2=C(c3ccc(OC[C@@H](O)CO)cc3)C(=O)NC2=O)c2ccccc21 | > 25 | > 25 µM
68 | O=C1C(Cl)N(c2ccccc2)C1c1c[nH]c2ccccc12 (stereo unspecified) | – | > 100 µM
69 | COc1ccc(CNc2nc3ccc(C(F)(F)F)cc3nc2-c2ccccc2)cc1OC | – | > 100 µM
70 | CCN(CC)CCCn1c(=O)c2cccnc2n2c3c(=O)n(C)c(=O)n(C)c3nc12 | – | > 100 µM
71 | Clc1ccc(Cc2nc3cc4ccccc4cc3[nH]2)cc1 | 27.3 | > 100 µM
72 | CCCCn1/c(=N/C(=S)N(C)C)ss/c1=N\C(=S)N(C)C | – | > 100 µM
73 | COC(=O)C(CC(=O)c1cc2c(cc1I)OCO2)Cc1cc(OC)c(OC)c(OC)c1I (stereo unspecified) | – | > 100 µM
74 | CC1CC(C#N)=C2NCCCCN2C1=O (stereo unspecified) | – | > 100 µM
75 | Cc1cc(O)cc(O)c1N=Nc1ccc([N+](=O)[O-])cc1 | – | 43.8 µM

Row | SMILES | GI50 [µM] | TGI
76 | CCOC(=O)c1cc(-c2ccc([N+](=O)[O-])cc2)n(-c2ccc(C(=O)O)c(O)c2)c1C | 12.7 | 25.9 µM
77 | C[C@]12CCC(=O)C=C1CC[C@@H]1C2CC[C@]2(C)NC(=O)C(C#N)CC12 (stereo partly specified) | – | > 100 µM
78 | CCOc1ccc(N=C/C=C(\Cl)c2ccc3ccccc3c2)cc1 | – | 32 µM
79 | CN(C)CCNC(=O)c1cccc2nc3c(Cl)cccc3nc12 | – | 44.6 µM
80 | CN(O)C(=O)Cc1ccc(OCc2cccc(Cl)c2)cc1 | – | > 100 µM
81 | O=C1CC(c2ccc([N+](=O)[O-])cc2)C2(C(=O)NC(=S)NC2=O)C(c2ccc([N+](=O)[O-])cc2)C1 (stereo unspecified) | – | 35.8 µM
82 | CN1C(=O)CN(NC(=O)C2=C(O)c3ccc(Br)cc3S(=O)(=O)N2)C1=S | – | > 100 µM
83 | CCCNC(=O)OCc1c(COC(=O)NCCC)c(-c2ccc(Cl)c(Cl)c2)n2c1CCC2 | – | 39.7 µM
84 | C=CC/C(C(=O)OC)=C(/C(=O)OC)N(CCC)CCC | – | > 100 µM
85 | CC(=O)/C=C/c1cccc(N=S)c1 | – | > 100 µM
86 | O=C(O)Cc1ccc2nc(COC(=O)c3ccccc3)sc2c1 | – | > 100 µM
87 | CCC1CCC2CCCC(C)N12 (stereo unspecified) | – | > 100 µM
88 | C#CC(C)(C)Oc1cc(O)c2c(=O)c3ccccc3n(C)c2c1 | – | > 100 µM
89 | COC(c1ccc(C(C)(C)C)cc1)(c1ccc(C(C)(C)C)cc1)c1cc(C(O)(c2cc(C(OC)(c3ccc(C(C)(C)C)cc3)c3ccc(C(C)(C)C)cc3)c(C)cc2C)c2cc(C(OC)(c3ccc(C(C)(C)C)cc3)c3ccc(C(C)(C)C)cc3)c(C)cc2C)c(C)cc1C | – | > 100 µM
90 | COC(=O)c1c(OC)cccc1C(=O)O | – | > 100 µM
91 | CN1CCN(Cc2ccc(NC(=O)c3cncc(C#Cc4cnc(N)c5ccccc45)c3)cc2C(F)(F)F)CC1 | 0.273 | 0.833 µM
92 | Cc1nc2cc(C(F)(F)F)ccc2[nH]c1=O | – | > 100 µM
93 | CC(C)(CO)N1C(=O)c2ccccc2C1(O)c1ccc(Cl)cc1 (stereo unspecified) | – | > 100 µM
94 | COc1ccc(NC2Oc3cc4c(cc3C(c3cc(OC)c(OC)c(OC)c3)C2C)OCO4)cc1 (stereo unspecified) | – | 7.05 µM
95 | CCOP(=O)(OCC)/C(F)=C/c1ccccc1 | – | > 100 µM
96 | CN(C)CCNc1nc2ccccc2c2[nH]c3ccccc3c12 | 0.234 | 1.06 µM
97 | CNC(=O)c1cc(Oc2ccc3c(c2)sc2nc(-c4ccc(N)cc4)cn23)ccn1 | 0.668 | > 100 µM
98 | CC1=CCCC(OC(N)=O)C1 (stereo unspecified) | – | > 100 µM
99 | C[C@]12CC/C(=N\O)C=C1CC[C@@H]1[C@@H]2CC[C@]2(C)C(=N/O)/C(=C/c3cccnc3)C[C@@H]12 | – | 82.7 µM
